Measured values from PMC7819943, “Rice protein-binding microarrays: a tool to detect cis-acting elements near promoter regions in rice”.
Some of the results follow.

What follows are sequences tested against T1, OsWOX13 (Oryza sativa, UniProt Q5QMM3 1-267) (assay: protein-binding microarray (RPBM); PBS, 2% BSA, 51.3 ng/ul salmon testes DNA, 50 uM zinc acetate, 200 nM TF, 25 C, 1 h; high values mean tight binding). Conditions: protein: recombinant; tags: N-terminal polyhistidine and DsRed monomer fusion (pET32a); label: CyDye5-dUTP incorporated in the synthesized complementary strand; 3' TTTTT single-stranded linker to array surface; dsDNA, one strand shown.
T1 sequence: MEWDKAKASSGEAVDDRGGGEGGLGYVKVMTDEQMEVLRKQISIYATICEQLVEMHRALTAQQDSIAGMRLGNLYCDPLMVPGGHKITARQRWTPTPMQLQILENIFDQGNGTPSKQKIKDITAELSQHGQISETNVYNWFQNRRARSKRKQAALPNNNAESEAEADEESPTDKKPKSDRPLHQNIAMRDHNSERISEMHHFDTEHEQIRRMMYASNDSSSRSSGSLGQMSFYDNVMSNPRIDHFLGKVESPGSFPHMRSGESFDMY
How it was run: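 Binding signal is defined as the fluorescence intensity of each feature in arbitrary units, read on an Axon 4000B scanner. Transcription factors with N-terminal polyhistidine and DsRed fusions came from E. coli BL21-CodonPlus and were purified on Ni–NTA. They were incubated at 200 nM for 1 h at 25 °C on a custom Agilent array that had been made double-stranded with Cy5-dUTP, with 50 µM zinc acetate present, and the array was washed.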

**Q.** For “ATTGGTTATAGATTAATTAGAGTTAGTAGTTGGCTATACTCGGAGTCACCTAGTGCAG”, which binding signal is on record?
**A.** 11700 fluorescence intensity (a.u.)

**Q.** Which binding signal does the source give for “ACCATTATTGATTAAAACTAAGTACATAGATCGAATCGAGCGGAGTCACCTAGTGCAG” here?
**A.** 37800 fluorescence intensity (a.u.)

**Q.** Which binding signal does the source give for “ATATAATTATAATTTATTTTATTGTGACTTGATTTATCATCGGAGTCACCTAGTGCAG” here?
**A.** 36400 fluorescence intensity (a.u.)

**Q.** For “AAAGCAAATAGACAAGTTCATTAGTTTGATGCAGGATACACGGAGTCACCTAGTGCAG”, which binding signal is on record?
**A.** 4450 fluorescence intensity (a.u.)

**Q.** “AAATTTGACGACAAATTAAGGGAGCTAAAGTGAACTTACTCGGAGTCACCTAGTGCAG” was tested. Which binding signal did it give?
**A.** 3420 fluorescence intensity (a.u.)

**Q.** With “ATGAATTGACTATTAAGTTGATTATATGTTATTTACAGCTCGGAGTCACCTAGTGCAG” as the sequence, how does the binding signal read?
**A.** 43400 fluorescence intensity (a.u.)

**Q.** Which binding signal does the source give for “ACTGAACAAATTGAGCATGGTGTATATGTCACATTTTCTACGGAGTCACCTAGTGCAG” here?
**A.** 6220 fluorescence intensity (a.u.)

**Q.** For “CCATAATCTTGGACTAATTTGCGAGACGAATCTAATGAGCCGGAGTCACCTAGTGCAG”, which binding signal is on record?
**A.** 18900 fluorescence intensity (a.u.)

**Q.** For “CAAAATTGAATCCACCTCATTTCTACCAACCTTAAATACACGGAGTCACCTAGTGCAG”, which binding signal is on record?
**A.** 16800 fluorescence intensity (a.u.)

**Q.** “TTAATTAGCAGTAGCACAAAGCAGCAATATAATGGCGACGCGGAGTCACCTAGTGCAG” was tested. Which binding signal did it give?
**A.** 3890 fluorescence intensity (a.u.)

**Q.** For “TCTAATTATTGCTCGGATGGCGCTATTACTTTTGTACCTACGGAGTCACCTAGTGCAG”, which binding signal is on record?
**A.** 6080 fluorescence intensity (a.u.)

**Q.** Which binding signal does the source give for “CCATCACTTGACAATTATGATTCAGACCTTGCTTGGCCTCCGGAGTCACCTAGTGCAG” here?
**A.** 4080 fluorescence intensity (a.u.)

**Q.** For “TCTAATTAGTAGTATTATTATACATGTGGTCAGCAATTTTCGGAGTCACCTAGTGCAG”, which binding signal is on record?
**A.** 31200 fluorescence intensity (a.u.)

**Q.** With “AGTTATTGATGGTTAAATTTATAAAAGTTTAATCTCAACCCGGAGTCACCTAGTGCAG” as the sequence, how does the binding signal read?
**A.** 19800 fluorescence intensity (a.u.)

**Q.** “GGATAATTTACTACTCCCTCTGTCCCAAAATATAAGAACCCGGAGTCACCTAGTGCAG” was tested. Which binding signal did it give?
**A.** 21100 fluorescence intensity (a.u.)

**Q.** For “TGTGATTATTGCCAGCGAATCTCCAACTCTGAAACTCTCACGGAGTCACCTAGTGCAG”, which binding signal is on record?
**A.** 28700 fluorescence intensity (a.u.)

**Q.** How did the binding signal turn out when “AATAATTAATGAATACAATCTTAGTCGAATCAGCTAGAATCGGAGTCACCTAGTGCAG” was run?
**A.** 15600 fluorescence intensity (a.u.)

**Q.** “TTCTGATTTCTTTCATGTACAAGTAGATGCAGGCGCCACCCGGAGTCACCTAGTGCAG” was tested. Which binding signal did it give?
**A.** 9600 fluorescence intensity (a.u.)

**Q.** “GGGACTGAGAGGGTAATTGAAGGTATGATGGAGAAAATTTCGGAGTCACCTAGTGCAG” was tested. Which binding signal did it give?
**A.** 13600 fluorescence intensity (a.u.)

**Q.** For “ATATTACATACCAATTGACCGATTGAAAATGGAGATCGCCCGGAGTCACCTAGTGCAG”, which binding signal is on record?
**A.** 5350 fluorescence intensity (a.u.)

**Q.** “TTTATTAATTTGTATGTGAAACTGACATGTGGGTCCCACGCGGAGTCACCTAGTGCAG” was tested. Which binding signal did it give?
**A.** 23600 fluorescence intensity (a.u.)

**Q.** With “ATATTGATGTTAATGAATCTAGACATATCAATATAAATGTCGGAGTCACCTAGTGCAG” as the sequence, how does the binding signal read?
**A.** 4730 fluorescence intensity (a.u.)

**Q.** With “CATGGGTAATTTACTAGCAATATAAAAGGACAAATATACGCGGAGTCACCTAGTGCAG” as the sequence, how does the binding signal read?
**A.** 3280 fluorescence intensity (a.u.)

**Q.** “GTTAGATGGATGGAGTAATAAATTAACTCTAAAATTAACTCGGAGTCACCTAGTGCAG” was tested. Which binding signal did it give?
**A.** 7570 fluorescence intensity (a.u.)

**Q.** Which binding signal does the source give for “ATTGAGGCATGTCAATTAGATCCTGTCAATAGTCGAGGGACGGAGTCACCTAGTGCAG” here?
**A.** 7430 fluorescence intensity (a.u.)

**Q.** With “ATGTTATAATTTCTAGATGATACGGCAATTTACTACACTGCGGAGTCACCTAGTGCAG” as the sequence, how does the binding signal read?
**A.** 4780 fluorescence intensity (a.u.)

**Q.** How did the binding signal turn out when “TCAATTAATTAAGCAAACGGCTTGCAACCTCTGATTGCCACGGAGTCACCTAGTGCAG” was run?
**A.** 22700 fluorescence intensity (a.u.)

**Q.** “TTGCTGAGGTATTCCCAAATTGATTGTCATCTAACTGGTGCGGAGTCACCTAGTGCAG” was tested. Which binding signal did it give?
**A.** 11000 fluorescence intensity (a.u.)

**Q.** How did the binding signal turn out when “GCTCTCAAAATAATTTGAATCATAGACATGCAAAATGGGTCGGAGTCACCTAGTGCAG” was run?
**A.** 3770 fluorescence intensity (a.u.)

**Q.** “ACTAATTTAACGAGAGTATTTTCTATATACAAATACAACACGGAGTCACCTAGTGCAG” was tested. Which binding signal did it give?
**A.** 12000 fluorescence intensity (a.u.)

**Q.** Which binding signal does the source give for “ACTGATGATGTGAGATGATATGATACAGACGGCAATGCACCGGAGTCACCTAGTGCAG” here?
**A.** 11900 fluorescence intensity (a.u.)

**Q.** For “ATTCCAATTGATTTTAGTTAGTTTTCATACATAGTTAACACGGAGTCACCTAGTGCAG”, which binding signal is on record?
**A.** 10900 fluorescence intensity (a.u.)

**Q.** For “ATCATTTATAGTCAATTTAATAGCCAATTCATACAATAGTCGGAGTCACCTAGTGCAG”, which binding signal is on record?
**A.** 5170 fluorescence intensity (a.u.)

**Q.** For “ACACAAGTCAGTCCAGAGTGATTGTTTATGCTGGTAATGCCGGAGTCACCTAGTGCAG”, which binding signal is on record?
**A.** 5710 fluorescence intensity (a.u.)

**Q.** With “AATTGAATAATCTAATTTAATTTCTATATTGCAGCAACTTCGGAGTCACCTAGTGCAG” as the sequence, how does the binding signal read?
**A.** 13900 fluorescence intensity (a.u.)

**Q.** With “ACATCATCTTAAATTTGTAGTTTTATTTATGATAAACAGACGGAGTCACCTAGTGCAG” as the sequence, how does the binding signal read?
**A.** 3340 fluorescence intensity (a.u.)

**Q.** How did the binding signal turn out when “CAACTTAAAATTAAAATTTGACATCAGTATATATATACACCGGAGTCACCTAGTGCAG” was run?
**A.** 6320 fluorescence intensity (a.u.)

**Q.** For “CATTGTAGAAACCAATCACTGCAGGGAACTCGAGTAAACTCGGAGTCACCTAGTGCAG”, which binding signal is on record?
**A.** 3730 fluorescence intensity (a.u.)

**Q.** How did the binding signal turn out when “GTTGATATGTGAAATAAAATTTTACCTTGTAAAATATGACCGGAGTCACCTAGTGCAG” was run?
**A.** 3570 fluorescence intensity (a.u.)

**Q.** How did the binding signal turn out when “TCGGCCCAATCAATTGCGTTGGTTATGAATGGCCCATGGACGGAGTCACCTAGTGCAG” was run?
**A.** 13500 fluorescence intensity (a.u.)

**Q.** With “ACGTCCTATCATGAATTTTGCCTTTGTCGTCCTGCAACCACGGAGTCACCTAGTGCAG” as the sequence, how does the binding signal read?
**A.** 3160 fluorescence intensity (a.u.)

**Q.** How did the binding signal turn out when “AAGAAAATTGTTAATTTCGAATTTGCAGTCCAGCACCTTTCGGAGTCACCTAGTGCAG” was run?
**A.** 9810 fluorescence intensity (a.u.)

**Q.** How did the binding signal turn out when “GCCTCTTAATTAACTAATTAAGGTGCAATTGAGCTGGGCTCGGAGTCACCTAGTGCAG” was run?
**A.** 50300 fluorescence intensity (a.u.)

**Q.** Which binding signal does the source give for “TACAATAATTAGCATGTAAAGACAAGTGCTTAATACTACCCGGAGTCACCTAGTGCAG” here?
**A.** 13800 fluorescence intensity (a.u.)

**Q.** With “GGGTATATAGTAAATTTCAATCATGGTGCCCGGGCACCATCGGAGTCACCTAGTGCAG” as the sequence, how does the binding signal read?
**A.** 4560 fluorescence intensity (a.u.)

**Q.** Which binding signal does the source give for “AAAATATCAATTGGCCATAATCATTGTAAGCACTATACAGCGGAGTCACCTAGTGCAG” here?
**A.** 7780 fluorescence intensity (a.u.)

**Q.** How did the binding signal turn out when “CCTCGTCAATCCTCTACATCCTGCGTTTCTTCCCCGTATACGGAGTCACCTAGTGCAG” was run?
**A.** 3660 fluorescence intensity (a.u.)

**Q.** How did the binding signal turn out when “TAAGTGATTTACTGCTAGCTTGTACCTTTTCTGTTTGTAACGGAGTCACCTAGTGCAG” was run?
**A.** 11300 fluorescence intensity (a.u.)

**Q.** For “GCGAAATTGGCACGTCGCAAAGTTTGCTGATGCATGGGAGCGGAGTCACCTAGTGCAG”, which binding signal is on record?
**A.** 12700 fluorescence intensity (a.u.)

**Q.** Which binding signal does the source give for “CACATGACGGACTGAATGAATTTCTGAAATATGAAGTTCTCGGAGTCACCTAGTGCAG” here?
**A.** 4000 fluorescence intensity (a.u.)

**Q.** “AATTTCAATCAAACTTTCAATTTTGACGTGAACTAAACACCGGAGTCACCTAGTGCAG” was tested. Which binding signal did it give?
**A.** 25900 fluorescence intensity (a.u.)

**Q.** Which binding signal does the source give for “TAAACCTAAATTTCCACTAAAATTTATATTTTAAAATCTCCGGAGTCACCTAGTGCAG” here?
**A.** 4090 fluorescence intensity (a.u.)

**Q.** How did the binding signal turn out when “TTAAAGTCTAATTACGCCATGATTTGACAATGTGGTGCTACGGAGTCACCTAGTGCAG” was run?
**A.** 30000 fluorescence intensity (a.u.)

**Q.** How did the binding signal turn out when “CTGTATTTGACTGTTACTGCTTTTGGATTTTGTTTCATTTCGGAGTCACCTAGTGCAG” was run?
**A.** 6280 fluorescence intensity (a.u.)
